Screen size: about 310,000 compounds; about 14,000 (4.5%) showed an effect of 50% or more. Effects have a minus sign here. Some of the results follow.
What follows are compounds tested against human ether-à-go-go-related gene (hERG) potassium channel (human, UniProt Q12809) (assay: primary screen, population patch clamp on CHO cells stably expressing hERG).
human ether-à-go-go-related gene (hERG) potassium channel, sequence (Q12809 whole entry, looked up): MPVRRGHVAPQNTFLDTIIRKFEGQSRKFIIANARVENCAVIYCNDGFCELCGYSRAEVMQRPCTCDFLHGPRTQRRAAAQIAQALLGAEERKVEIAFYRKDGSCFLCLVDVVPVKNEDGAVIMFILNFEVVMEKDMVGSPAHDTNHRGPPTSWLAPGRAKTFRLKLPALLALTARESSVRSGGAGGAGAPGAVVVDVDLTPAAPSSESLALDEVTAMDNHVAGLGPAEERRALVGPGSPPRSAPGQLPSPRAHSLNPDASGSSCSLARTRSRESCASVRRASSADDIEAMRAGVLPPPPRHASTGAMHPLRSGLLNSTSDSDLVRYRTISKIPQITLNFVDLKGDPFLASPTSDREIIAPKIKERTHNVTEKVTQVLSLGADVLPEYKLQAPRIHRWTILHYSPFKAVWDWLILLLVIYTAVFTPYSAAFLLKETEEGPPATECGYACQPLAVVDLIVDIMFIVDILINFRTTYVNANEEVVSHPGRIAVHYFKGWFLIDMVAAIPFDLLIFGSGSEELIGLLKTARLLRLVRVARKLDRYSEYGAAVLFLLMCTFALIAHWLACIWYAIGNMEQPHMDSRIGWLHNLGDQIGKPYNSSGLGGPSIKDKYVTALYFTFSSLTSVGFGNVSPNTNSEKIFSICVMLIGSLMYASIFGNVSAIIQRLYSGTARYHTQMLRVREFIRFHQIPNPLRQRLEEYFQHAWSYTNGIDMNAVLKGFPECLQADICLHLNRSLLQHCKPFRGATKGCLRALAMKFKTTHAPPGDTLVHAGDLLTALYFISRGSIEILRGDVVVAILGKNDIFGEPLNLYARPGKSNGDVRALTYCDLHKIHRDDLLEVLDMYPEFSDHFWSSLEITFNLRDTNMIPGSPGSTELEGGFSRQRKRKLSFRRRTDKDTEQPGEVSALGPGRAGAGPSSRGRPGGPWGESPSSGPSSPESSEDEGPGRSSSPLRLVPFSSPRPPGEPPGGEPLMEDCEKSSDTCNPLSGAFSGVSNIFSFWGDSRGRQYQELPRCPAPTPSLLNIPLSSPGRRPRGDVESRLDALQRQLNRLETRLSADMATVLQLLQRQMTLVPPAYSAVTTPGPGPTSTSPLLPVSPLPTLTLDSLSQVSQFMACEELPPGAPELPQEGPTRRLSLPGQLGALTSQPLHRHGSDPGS
Cc1nc(C)c(-c2nnc(-c3ccc(C(C)(C)C)cc3)o2)cc1C(=O)NN was tested, and the “hERG current change (%, negative = inhibition) at 10uM” value was -6.75%. With COc1ccccc1NC(=S)N/N=C/c1cccc(C)c1 the “hERG current change (%, negative = inhibition) at 10uM” value was 15.4%. For OCC[NH+](CCO)CC(O)COc1ccc(Br)cc1.[Cl-] (stereo not drawn), the “hERG current change (%, negative = inhibition) at 10uM” value was -5.17%. O=C(Cn1c(CO)nc2ccccc21)NCCc1ccc(F)cc1 was tested, and the “hERG current change (%, negative = inhibition) at 10uM” value was -3.46%. For O=C(Cc1ccccc1)NC(NCCc1ccccc1)C(Cl)(Cl)Cl (stereo not drawn), the “hERG current change (%, negative = inhibition) at 10uM” value was -20%. With COc1ccc(S(=O)(=O)NCC2CCCO2)c(Cl)c1Cl (stereo not drawn) the “hERG current change (%, negative = inhibition) at 10uM” value was -38.7%. In the case of CCn1ncc(Cl)c1C(=O)NC(=S)Nc1c(C)cc(C)cc1[N+](=O)[O-], the “hERG current change (%, negative = inhibition) at 10uM” value is reported as -0.873%. For CCCCC(=O)NC(NC(=O)CCCC)c1ccc(OCCC)c(OC)c1, the “hERG current change (%, negative = inhibition) at 10uM” value was -15.3%. C[C@@H](NC(=O)c1nc[nH]c1C(=O)NCC(=O)OCc1ccccc1)c1ccccc1 was tested, and the “hERG current change (%, negative = inhibition) at 10uM” value was -16.6%. With O=C(O)c1ccc(C(=O)c2ccc3c(c2)C(=O)N(Cc2ccco2)C3=O)cc1 the “hERG current change (%, negative = inhibition) at 10uM” value was 11.7%. In the case of COC(=O)c1ccccc1NC(=O)CSc1nccn1C, the “hERG current change (%, negative = inhibition) at 10uM” value is reported as 11.9%. For Cc1cc(C)n2ncc(C(=O)Nc3cccc(O)c3)c2n1, the “hERG current change (%, negative = inhibition) at 10uM” value was 10.5%. O=C(c1ccc2c(c1)OCO2)C1CCCN(Cc2ccc3cccc(F)c3n2)C1 (stereo not drawn) was tested, and the “hERG current change (%, negative = inhibition) at 10uM” value was -87%. Cc1ccc(SCC(=O)OCC(=O)NCc2cccs2)cc1 was tested, and the “hERG current change (%, negative = inhibition) at 10uM” value was 5.8%. C=CCn1c(SCC(=O)c2ccc(Br)cc2)nnc1C(CC(C)C)NC(=O)c1cccs1 (stereo not drawn) was tested, and the “hERG current change (%, negative = inhibition) at 10uM” value was -3.88%. Cc1ccc(C(=O)N/C(=C\c2ccc(Cl)cc2)C(=O)NCCN2CCOCC2)cc1 was tested, and the “hERG current change (%, negative = inhibition) at 10uM” value was -75.1%. In the case of COC(=O)c1cc2oc(C)cc2n1CC(=O)Nc1ccc(C)c(C)c1, the “hERG current change (%, negative = inhibition) at 10uM” value is reported as 6.32%. In the case of Cc1ccc(S(=O)(=O)NC(C)(C)CSc2nncn2N)cc1, the “hERG current change (%, negative = inhibition) at 10uM” value is reported as 9.75%. O=C1Nc2ccc(Br)cc2C(c2ccc(Cl)cc2)=NC1O (stereo not drawn) was tested, and the “hERG current change (%, negative = inhibition) at 10uM” value was -56.5%. For Cc1ccc(/C(O)=C2\C(=O)C(=O)N(CC(C)O)C2c2ccccn2)cc1 (stereo not drawn), the “hERG current change (%, negative = inhibition) at 10uM” value was 15.5%. For O=[N+]([O-])c1ccc(O)c(C=Nc2ccc3oc(Cc4ccc(Cl)cc4)nc3c2)c1, the “hERG current change (%, negative = inhibition) at 10uM” value was 11.8%. With CC(C)NC(=O)CN1C(=O)CSc2ccc(S(=O)(=O)N3CCCC3)cc21 the “hERG current change (%, negative = inhibition) at 10uM” value was 15.6%. For COc1ccc(Nc2nc(-c3cccs3)cs2)c(OC)c1, the “hERG current change (%, negative = inhibition) at 10uM” value was 4.09%. With O=C(Nc1ccccc1Oc1cccnc1)C1CCCN(C/C=C/c2ccc(F)cc2)C1 (stereo not drawn) the “hERG current change (%, negative = inhibition) at 10uM” value was -76.9%. For Cc1cc(S(=O)(=O)N(Cc2ccc(C(C)C)cc2)CC2CCCO2)ccc1-n1cnnn1 (stereo not drawn), the “hERG current change (%, negative = inhibition) at 10uM” value was -6.44%. For Cc1ccc(S(=O)(=O)C(C#N)c2nc3ccccc3nc2N2CCN(C)CC2)cc1C (stereo not drawn), the “hERG current change (%, negative = inhibition) at 10uM” value was -9.18%. In the case of Cc1cc(C)n2ncc(C(=O)NCc3ccc(Cl)cc3)c2n1, the “hERG current change (%, negative = inhibition) at 10uM” value is reported as -14.9%. In the case of C=CCOCCN(C)C1=NS(=O)(=O)c2ccccc21.Cl, the “hERG current change (%, negative = inhibition) at 10uM” value is reported as 16%. With COc1ccccc1C1C(C(C)=O)=C(C)N=c2s/c(=C\c3cc(OC)c(OC)c(OC)c3)c(=O)n21 (stereo not drawn) the “hERG current change (%, negative = inhibition) at 10uM” value was 2.96%. CCOc1cc2[nH]c(=S)n(CCCC(=O)N3CCC4(CC3)OCCO4)c(=O)c2cc1OCC was tested, and the “hERG current change (%, negative = inhibition) at 10uM” value was 16.2%. For CCCn1cnc2c1c(=O)n(CCCCC(C)=O)c(=O)n2C, the “hERG current change (%, negative = inhibition) at 10uM” value was -4.29%. With CC(C(=O)NCc1cccs1)N1C(=O)c2ccccc2C1=O (stereo not drawn) the “hERG current change (%, negative = inhibition) at 10uM” value was -5.43%. In the case of COc1cc(NC(=O)c2cccc([N+](=O)[O-])c2)ccc1NC(=O)c1cc2ccccc2o1, the “hERG current change (%, negative = inhibition) at 10uM” value is reported as 15%. With Cc1cc(=O)[nH]c2ccc(S(=O)(=O)N3CCOCC3)cc12 the “hERG current change (%, negative = inhibition) at 10uM” value was 8.33%. With COc1ccc(C(=O)N/N=C/c2ccc(OC)c(COc3c(F)c(F)cc(F)c3F)c2)cc1 the “hERG current change (%, negative = inhibition) at 10uM” value was 16.5%. For Cc1cc(NCc2ccco2)nc(N2CCC(C(=O)NC3CCCCC3)CC2)n1, the “hERG current change (%, negative = inhibition) at 10uM” value was -71.1%. For O=C(CSc1nnc(SCC(=O)c2ccco2)s1)c1ccco1, the “hERG current change (%, negative = inhibition) at 10uM” value was -18.8%. With O=C1CN(c2nc3ccccc3n3cnnc23)CC(=O)N1CCc1ccccc1 the “hERG current change (%, negative = inhibition) at 10uM” value was -8.65%. C=CCN(C(=O)Nc1ccc2c(c1)nc(C)n2C)c1ccccc1 was tested, and the “hERG current change (%, negative = inhibition) at 10uM” value was 3.69%. For O=C(NC(=S)Nc1cc(Cl)ccc1N1CCOCC1)c1ccc(-c2cccc(Cl)c2)o1, the “hERG current change (%, negative = inhibition) at 10uM” value was 8.91%. Cc1ccc(SCC(=O)OCC(=O)NCCc2ccccc2)cc1C was tested, and the “hERG current change (%, negative = inhibition) at 10uM” value was -2.77%. COc1ccc(N(CC(=O)Nc2ccccc2F)S(=O)(=O)c2ccc(OC)c(OC)c2)cc1 was tested, and the “hERG current change (%, negative = inhibition) at 10uM” value was -24.2%.

Source: article PMC4336329 (PLoS ONE, 2015)
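Further: peak tail current of the secondary pulse compared with the same well before compound.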
